Laboratory results: the supplement of paper PMC3334620
Over roughly 33,000 sequences, “E-score (-0.5 to 0.5)” has its median near -0.021; the highest 2% begin near 0.32. This is one part of the list.

What follows are sequences tested against T1, Zap1 (UniProt P47043) (assay: PBM E-score (8-mer binding enrichment) (E-score (-0.5 to 0.5)); higher = stronger / more preferred TF binding; most listed sequences are background and not binding sites). Conditions: protein concentration: 200 nM; construct: GST-full length.
T1 sequence: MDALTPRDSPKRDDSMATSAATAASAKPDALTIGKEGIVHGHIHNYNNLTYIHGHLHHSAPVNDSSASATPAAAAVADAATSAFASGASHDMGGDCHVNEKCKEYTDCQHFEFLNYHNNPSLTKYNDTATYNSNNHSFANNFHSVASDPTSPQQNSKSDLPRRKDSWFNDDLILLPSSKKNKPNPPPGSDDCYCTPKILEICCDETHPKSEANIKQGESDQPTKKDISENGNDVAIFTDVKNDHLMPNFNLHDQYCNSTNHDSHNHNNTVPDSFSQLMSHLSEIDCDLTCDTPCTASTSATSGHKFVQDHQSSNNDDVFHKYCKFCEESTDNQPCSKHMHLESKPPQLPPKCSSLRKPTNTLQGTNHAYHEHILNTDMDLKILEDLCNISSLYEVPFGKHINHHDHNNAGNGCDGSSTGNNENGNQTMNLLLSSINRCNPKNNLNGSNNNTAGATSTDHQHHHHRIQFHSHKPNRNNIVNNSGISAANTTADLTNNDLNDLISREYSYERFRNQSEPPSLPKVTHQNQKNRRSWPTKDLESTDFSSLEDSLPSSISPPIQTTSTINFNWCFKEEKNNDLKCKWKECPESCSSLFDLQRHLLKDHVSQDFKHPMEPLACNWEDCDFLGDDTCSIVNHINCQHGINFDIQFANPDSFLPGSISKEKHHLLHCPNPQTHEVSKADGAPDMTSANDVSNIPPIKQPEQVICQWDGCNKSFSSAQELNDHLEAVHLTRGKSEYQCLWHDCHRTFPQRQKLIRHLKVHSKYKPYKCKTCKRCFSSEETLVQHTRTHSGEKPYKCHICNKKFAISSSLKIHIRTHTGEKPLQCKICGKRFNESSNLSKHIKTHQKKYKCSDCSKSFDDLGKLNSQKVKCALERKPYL
Outline: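 E-scores (a modified Wilcoxon-Mann-Whitney statistic) were assigned by the Universal PBM Analysis Suite to every ungapped eight-base word pooled with its reverse complement. The input came from universal all-10-mer Agilent arrays made double-stranded by primer extension and probed with GST-tagged yeast transcription factors at about 100-200 nM. Fluorescent anti-GST detected bound protein, and masliner normalised the scans.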

Sequence | PBM E-score
CGGCCTGA | -0.1
AAGCGGCC | -0.128
ATTTAGAA | 0.0699
CCGTACCG | -0.0718
CTGGTCAA | 0.0546
CTAGACCA | 0.0284
AGTACAAC | -0.0141
GGACACAC | -0.127
CACTAGGG | 0.298
CGAGCGCG | -0.0778
ACTCAGGG | 0.0842
CCTAGTTC | -0.00448
AAGTATAG | -0.0711
CAATGCGG | 0.0126
TATTTTCA | 0.182
ACTCGTCG | -0.156
AGCTACCT | 0.0784
TCTGGGAA | -0.00205
AATCGACA | 0.197
ATTGCGAG | -0.116
ATGTCATA | -0.0263
GCCACCAA | -0.0712
CACACCAA | 0.132
GTTCTAGA | 0.103

Sequence | PBM E-score
AGCTTTTG | -0.104
TCGTCGAA | -0.051
CTGCTCCA | -0.0925
CCTTGACG | 0.115
AATTACGA | 0.117
GGTCTCCA | 0.0867
GAGTCTTA | -0.368
CCATGACC | 0.416
AGAGCGTG | -0.169
AGCCGCGC | -0.0715
CACAAGGG | 0.183
AGGTGGCC | 0.0313
AGTGGGAC | -0.224
ATAAGTAG | -0.176
ACACAGGT | 0.0457
CTTATCTA | 0.115
ATGCGAAA | 0.0458
AGATGCCA | -0.238
CCTTCCAG | 0.113
GGCCCGCA | -0.143
AATGAAGA | 0.0315
CGGTATCA | 0.0813
CCAACGGG | 0.144
GACGTCCC | -0.181

Sequence | PBM E-score
AGAACATG | -0.0176
AGGTCGGA | 0.00598
GCCCTTCA | 0.0388
TGCTTAAA | 0.0825
CATGTATC | -0.101
ATTTACTC | 0.1
TAAACCAA | 0.199
AGCGTAAT | -0.0603
CGGCTGCC | -0.0566
ACGGGCCG | -0.216
AGGATGTG | 0.0127
TCCAGTCA | -0.154
GATTTAGC | 0.118
GCATGACA | -0.134
ATAGACAT | -0.0121
CTTCGGCC | -0.221
GGAGACCC | 0.124
GATTGCCA | -0.122
AACCAAAT | 0.223
CTGCGTTA | -0.121
ATTATGAG | -0.0122
ATCCACAG | 0.0245
AGTCTTCA | -0.166
AGTAGGGG | 0.00615

Sequence | PBM E-score
AACGAGGC | -0.0552
AAAGTTGT | 0.208
GGCTGTGA | -0.0511
GAGCAACC | 0.0661
ATTAGACG | 0.0244
ATTGAATA | 0.17
CGAACGGC | -0.0116
GGCAGTGA | -0.276
AAAAGTTA | 0.17
GCGTACGC | -0.175
ACTTTCGA | 0.0778
AATCGGCA | 0.00192
CAAAAGAG | 0.109
CTCACTGA | -0.0315
GGGCAGAC | -0.266
CACCGGCC | -0.0683
CGATGGAC | -0.00329
AATTCAAC | 0.0874
CTCCGGAA | -0.251
ACTATCCG | 0.0242
GACTACGC | -0.338
ATATTTGG | 0.0679
